Source: PubChem BioAssay AID652104 (National Center for Advancing Translational Sciences (NCATS), 2013)
The campaign covered roughly 410,000 compounds. About 7,200 (1.8%) were called active. The inconclusive results got no clear call from the source; some entries with a clear call stand among them for comparison. The call rests on the fitted dose curve; in most records, active means well fitted activation curve with a large enough effect; inconclusive means small, poorly fitted or top-dose-only effect, or another doubt; inactive means no such curve, though single readings can be large or run the other way. Potencies of inconclusive entries are left out as doubtful fits.

experiment: qHTS of TDP-43 Inhibitors; conditions: TDP-43 expressing yeast growth rescue, BacTiter-Glo, 24 h; growth rescue (activation): at 46.1 µM (top of the series) unless noted; further: nearly all actives have a fitted effect of over 50% in size; on growth rescue (activation): % of control where 0% means no effect
How it was run: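 Growth rescue of TDP-43-toxic yeast measured as ATP luminescence (BacTiter-Glo). Cells grown to mid-log in raffinose, induced in galactose at OD600=0.02, exposed to compound 24 hr at 30 deg C.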
Potency means the concentration at half of the fitted maximal effect; tags describe the fitted curve by direction and shape.

Compound | Potency | growth rescue (activation)
CC(C)(C)c1ccc(Oc2ccc(NC(=O)CCC(=O)OCC(=O)c3ccccc3)cc2)cc1 | inconclusive [activator, full curve] | 
CCCOc1ccc(/C=C/C(=O)NC2CCCCC2)cc1 | inconclusive [activator, partial curve] | 
Cc1csc(NC(=O)CSc2ncn(-c3ccccc3)n2)n1 | inconclusive [activator, single point] | 
COc1ccc(-c2csc(C(C)(NC(C)=O)c3ccccc3)n2)cn1 (stereo unspecified) |  | inactive: 21.2%
Cc1ccc(C)c(NC(=O)C2C3C=CC(O3)C2C(=O)O)c1 (stereo unspecified) | inconclusive [activator, partial curve] | 
COC(=O)c1c(-c2ccc(Br)cc2)csc1NC(=O)Cc1ccc(OC)c(OC)c1 | inconclusive [activator, partial curve] | 
CCc1cccc(NC(=S)Nc2cccc3ccccc23)c1 | inconclusive [activator, single point] | 
Cc1noc(C)c1C(=O)OCC(=O)Nc1c(F)cccc1F | inconclusive [activator, single point] | 
O=C(NCCS(=O)(=O)N1CCN(c2ccc(F)cc2)CC1)c1cccc(C(F)(F)F)c1 | active: 10 µM | 
O=S(=O)(Nc1ccc(N2CCOCC2)cc1)c1ccc2ccccc2c1 | inconclusive [activator, single point] | 
CC(C)Oc1cccc(C2CC(=O)Nc3cc4c(cc32)OCO4)c1 (stereo unspecified) | inconclusive [activator, partial curve] | 
CC(=O)c1nnn(-c2ccc(C)cc2Cl)c1C | inconclusive [activator, partial curve] | 
Cc1cccc(C)c1NC(=O)c1csc([C@H]2C[C@H](O)[C@@H](CO)O2)n1 |  | inactive: 0%
COc1ccc(NC(C)(C)c2nnnn2-c2c(C)cccc2C)cc1 | active: 12.6 µM | 
CCOC(=O)c1cccc2c1-c1ccccc1/C2=N/O | active: 14.1 µM | 
Nc1ccc(-c2nnc(-c3ccccc3)o2)cc1 | inconclusive [activator, single point] | 
O=c1c2ccccc2ncn1Cc1ccc2c(c1)OCO2 | inconclusive [activator, partial curve] | 
Cc1ccc(Cl)cc1N1CCN(C(=O)CCCn2c(=O)[nH]c3ccc(Br)cc3c2=O)CC1 |  | inactive: 13.1%
Cc1ccc(NC(=O)c2cc(C)nc3ccccc23)c(Br)c1 | inconclusive [activator, single point] | 
CCCS(=O)(=O)N1CCN(C(=O)c2cccnc2)CC1 |  | inactive: 8.49%
CCC1CCCCN1c1nc(-c2cccc(OC)c2O)nc2ccccc12 (stereo unspecified) | inconclusive [activator, single point] | 
CCOC(=O)C1CCN(C(=O)c2ccc(NC(=O)c3nsc4ccccc34)cc2)CC1 | inconclusive [activator, single point] | 
O=C(NCc1ccccc1Cl)c1ccc(Cn2c(SCc3ccccc3)nc3cccnc32)cc1 | inconclusive [activator, single point] | 
CC(=O)NCCc1cnc[nH]1 | inconclusive [activator, partial curve] | 

Compound | Potency | growth rescue (activation)
COc1ccc(N2CCN(S(=O)(=O)c3cccc4cccnc34)CC2)cc1 | inconclusive [activator, partial curve] | 
C=CCOc1c(Cl)cc(CNCCC)cc1Cl |  | inactive: -2.25%
COc1ccc(-c2cc3n(n2)CCc2nc4ccccc4n2-3)cc1 | inconclusive [activator, partial curve] | 
CCOc1ccccc1N(CC(=O)N1CCCCCC1)S(=O)(=O)c1ccc(C)cc1 | inconclusive [activator, single point] | 
Cc1ccc(C(=O)/C=C/C(=O)O)cc1 |  | inactive: -71%
O=C(Nc1cccc(C(=O)O)c1)/C(=C\c1ccccc1)NC(=O)c1ccco1 | inconclusive [activator, full curve, poor fit] | 
O=C(Cc1ccc([N+](=O)[O-])cc1)NCCS(=O)(=O)N1CCN(c2ccccc2)CC1 |  | inactive: 10.9%
O=[N+]([O-])c1ccc(CN2CC(N3CCC(c4ccccc4)CC3)CS2(=O)=O)cc1 (stereo unspecified) | active: 25.1 µM | 
COCc1cccc(C2=CC(=O)C[C@H](c3ccc(OC)cc3)C2)c1 | active: 14.1 µM | 
Cc1c(NC(=O)c2cc3ccccc3o2)cccc1-n1cnnn1 | inconclusive [activator, partial curve, poor fit] | 
O=C1CNC(=S)N1Cc1ccccc1 |  | inactive: -0.179%
COc1cc(O)c2c(=O)c3c(OC)c(O)ccc3oc2c1 | inconclusive [activator, full curve] | 
CCOCC(=O)Nc1cccc(-c2nc3cccnc3s2)c1C | inconclusive [activator, partial curve] | 
COc1ccc(OC)c(Nc2ncnc3c2nc2n3CCCC2)c1 | inconclusive [activator, partial curve] | 
Cc1ccccc1C(=O)O/N=C(\N)c1ccccc1 |  | inconclusive: -80.4% [activator]
O=C(CCn1ccc2cc(S(=O)(=O)N3CCCC3)ccc21)NCc1cccc(Cl)c1 |  | inactive: 17.2%
Cc1cc(Cl)ccc1OC(C)C(=O)NN1C(=O)c2ccccc2C1=O (stereo unspecified) | inconclusive [activator, full curve, poor fit] | 
Cc1cccc(C(C)C)c1NC(=O)C1CCCN1S(=O)(=O)c1cccc2nsnc12 (stereo unspecified) |  | inactive: 26.3%
S=c1[nH]nc(-c2ccco2)n1/N=C/c1cccc(Cl)c1Cl | inconclusive [activator, single point] | 
Cn1nc(C(=O)OCc2ccc(F)cc2)c2ccccc2c1=O | inconclusive [activator, full curve, poor fit] | 
Cc1ccc(Nc2nnc(-c3ccc(C)c(S(=O)(=O)N4CCN(C)CC4)c3)c3ccccc23)cc1 |  | inactive: 15.1%
Cc1cccnc1NC(=S)Nc1ncccc1C |  | inactive: -19.4%
CC(C)CN(C(=O)COC(=O)c1cccs1)c1c(N)n(Cc2ccccc2)c(=O)[nH]c1=O | inconclusive [activator, partial curve, poor fit] | 
Cc1cc2c(cc1C)C(c1cccc([N+](=O)[O-])c1)CC(=O)N2 (stereo unspecified) |  | inactive: 6.68%

Compound | Potency | growth rescue (activation)
O=C(Nc1ncccn1)c1cc([N+](=O)[O-])cc([N+](=O)[O-])c1 | inconclusive [activator, partial curve] | 
CCC1CN(C(=O)N2CCC(C(=O)NCCc3ccccc3Cl)CC2)c2cc(C)ccc2O1 (stereo unspecified) | inconclusive [activator, single point] | 
CCS(=O)(=O)c1nn2c(N)c(/C=C3/C=CC(=O)C(OC)=C3)c(=O)nc2s1 | inconclusive [activator, partial curve] | 
COc1ccccc1NC(=O)COC(=O)c1c(C)nn(-c2ccccc2)c1C | active: 17.8 µM | 
CC(=O)Nc1ccc(NC(=O)Cc2sc(-c3cccnc3)nc2-c2ccc(C)cc2)cc1 |  | inactive: 2.46%
Cc1ccccc1NC(=O)Cc1nc(COC(=O)c2ncc(Cl)c(Cl)c2Cl)cs1 | inconclusive [activator, single point] | 
COc1ccc(C(=O)NCC(=O)OCCOc2ccc(Cl)cc2)cc1OC | inconclusive [activator, full curve, poor fit] | 
CCC(=O)c1ccc(OCC(=O)OCC(=O)NCc2cccs2)cc1 | inconclusive [activator, partial curve] | 
COC(=O)[C@@]12CCCCN1[C@H](c1ccc(-c3ccc(F)cc3)cc1)[C@@H]1C(=O)N(C)C(=O)[C@@H]12 | active: 12.6 µM | 
Cc1cc(C(=O)Nc2cccc3ccccc23)oc1C | inconclusive [activator, full curve, poor fit] | 
O=C(CSc1nnc(-c2cc3ccccc3cc2O)n1Cc1ccco1)N1CCc2ccccc2C1 |  | inactive: -19.6%
Cc1ccc(OCCCCn2nnc3sc4c(c3c2=O)CCCC4)cc1 | inconclusive [activator, partial curve] | 
CCn1c(=O)c2c(nc3n2CC(C)CN3CCc2ccccc2)n(C)c1=O (stereo unspecified) | inconclusive [activator, single point] | 
COc1ccc(CNC(=S)NCc2ccc(OC(C)C)cc2)cc1 | inconclusive [activator, single point] | 
CC(=O)N1CCc2nc3sc(C(=O)c4ccc(F)cc4)c(N)c3c(C(F)(F)F)c2C1 | active: 28.2 µM | 
CCCOc1cccc(C(=O)N(Cc2ccccc2)C2CCS(=O)(=O)C2)c1 (stereo unspecified) |  | inactive: -16.8%
COc1ccc(S(=O)(=O)N2CCCCC2)cc1NS(=O)(=O)c1cc(Cl)ccc1Cl | inconclusive [activator, partial curve] | 
COc1ccc(OC(C)C(=O)Nc2cccc([N+](=O)[O-])c2)cc1 (stereo unspecified) | active: 10 µM | 
C#CCNC(=O)C[C@@H]1C[C@@]2(C(=O)OC)CC(C)(C)CC=C2N(CCCCCCCC)C1=O | inconclusive [activator, partial curve] | 
COc1cccc(C2=CC(=O)C[C@H](c3ccc(OC)c(OC)c3)C2)c1 | active: 15.8 µM | 
Cc1cccc(Nc2nnc(SCC(=O)c3ccc(Br)s3)s2)c1C | active: 25.1 µM | 
CN1/C(=C/C(=S)NC(=O)C2(C)CC2(Cl)Cl)C(C)(C)c2ccccc21 (stereo unspecified) |  | inactive: -11% [at 1.82 µM]
CCN1C(=NCc2cc(OC)c(OC)c(OC)c2)N[C@@H](c2ccccc2)C(C(=O)OC)=C1C | inconclusive [activator, full curve, poor fit] | 
